The source of these data is PubChem BioAssay AID1346428 (National Center for Advancing Translational Sciences (NCATS), 2018).

Hit rate of the full screen: of about 48,000 compounds, about 1,200 (2.5%) were called active. Another 2% or so got no clear call; they are omitted.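 Rule for the calls: active = activation of at least 60% and not above a set upper limit (about 1 call in 100 departs from these limits); inconclusive = activation of 40% to 60%, or above that upper limit; inactive = activation under 40%.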 Some of the results follow.

For the assay, the target named is Probable G-protein coupled receptor 32 (Homo sapiens) (UniProt O75388). Kind of assay: qHTS for Agonists of Human Resolvin D1 Receptor DRV1. As to conditions: CHO-K1 GPR32 beta-arrestin PathHunter luminescence, 90 min; at 76.9 µM; hits give high values; zero percent set by DMSO-only wells. Summed up: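 Using DMSO wells as EC0, agonist-induced signal was taken as chemiluminescence from beta-Gal reconstituted upon beta-arrestin recruitment to GPR32 in CHO-K1 cells after 90 min compound treatment.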
Chain of UniProt O75388 (O75388 whole entry, looked up): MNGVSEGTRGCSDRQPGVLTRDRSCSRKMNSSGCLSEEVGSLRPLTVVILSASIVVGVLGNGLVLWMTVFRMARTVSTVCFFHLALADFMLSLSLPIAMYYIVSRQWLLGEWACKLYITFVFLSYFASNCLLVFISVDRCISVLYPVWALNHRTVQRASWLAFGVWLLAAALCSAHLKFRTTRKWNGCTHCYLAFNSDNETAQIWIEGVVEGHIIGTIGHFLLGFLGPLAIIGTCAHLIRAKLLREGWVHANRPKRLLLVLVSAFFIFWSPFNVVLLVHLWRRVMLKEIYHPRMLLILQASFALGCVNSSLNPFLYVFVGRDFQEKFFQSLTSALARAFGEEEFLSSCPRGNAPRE
Consider `COc1ccc(CN(Cc2ccco2)c2cnc(S(C)(=O)=O)nc2C(=O)Nc2ccc(C)c(Cl)c2)cc1`, for which the activation was inactive: -14.6%.
The result for `CCCc1nc(SC)ncc1C(=O)N1CCN(c2ccc(Cl)cc2)CC1` reads inactive: 12.6%; that for `CCCn1c(SCc2nc(-c3ccc(OC)c(OC)c3)no2)nnc1-c1ccccc1`, inactive: -26.4%.
With `Cc1ccc(NC(=O)c2cnn3c(C(F)F)cc(-c4ccccc4)nc23)cc1F`, the activation was inactive: -18%.
With `O=C(NCCc1ccccc1)C1CCC(CNS(=O)(=O)c2ccccc2)CC1` (stereo not drawn) the figure was inactive: -13.1%; with `CC(C)Oc1ccc(C(=O)N2CCN(CCc3ccccn3)CC2)cc1`, inactive: 26.8%.
On to `CC1CCc2nn(CC(=O)Nc3ccccc3Cl)cc2C1` (stereo not drawn), for which the activation is inactive: -14.4%.
Turning to `COc1ccc(OC)c(CNC(=O)c2ccc(-c3nc(CSc4ccccc4)c(C)o3)cc2)c1`, the activation was inactive: -10%.
For `CCOc1ccc(NC(=O)NCCc2c(C)nn(C)c2C)cc1`, the activation was inactive: 14.5%.
The result for `COc1cccc(S(=O)(=O)N2CCN(Cc3ccc4c(c3)OCO4)CC2)c1` reads inactive: -11.6%.
The result for `CN(Cc1ccccc1)S(=O)(=O)c1ccc(-c2cnc(C3CC3)o2)cc1` reads inactive: 0.499%; that for `Cc1c(C2=CCN(S(=O)(=O)c3cccc(Cl)c3)CC2)c2ccccc2n1CC(=O)N1CCCC1`, inactive: -18.9%.
As to `Cc1ccc(NC(=O)C(C)Sc2nc(=O)cc(N)n2-c2cccc(C)c2)cc1` (stereo not drawn), the activation is inactive: -16.5%.
With `COc1ccc(NC(=O)C(=O)NCC(c2cccnc2)N2CCc3ccccc32)cc1OC` (stereo not drawn) the figure was inactive: -24.3%; with `Cc1cccc(N2CCN(C(=O)CN3CCSc4ccccc43)CC2C)c1` (stereo not drawn), inactive: 7.62%.
As to `CCc1ccc(-c2nc3c(c(SCc4ccccc4F)n2)Cc2c(CO)cnc(C)c2O3)cc1`, the activation is inactive: 9.03%.
`CCOC(=O)c1ccc(NC(=O)Cn2cc(C(=O)c3ccc(CC)cc3)c(=O)c3ccc(C)nc32)cc1`: the activation is inactive: 15.9%.
With `CCN1c2ccccc2-c2nc(SCC(=O)NCc3ccc(C)cc3)ncc2S1(=O)=O` the figure was inactive: -5.87%; with `CCOC(=O)c1cnc2ccccc2c1NCCc1ccc(OC)c(OC)c1`, inactive: -4.73%; with `COc1ccc(CNC(=O)c2cnc3sc(N4CCCCCC4)nn3c2=O)cc1`, inactive: -2.47%.
Consider `COC(=O)C1=C(c2ccccc2)c2ccccc2S(=O)(=O)N1CC(=O)Nc1ccc(F)c(F)c1`, for which the activation was inactive: -7.13%.
As for `Cc1ccc(CNC(=O)Cn2c(=O)cc(C(F)(F)F)c3c(C)nn(C)c32)cc1`, the activation is inactive: -0.698%.
The result for `Cc1sc2ncn(CC(=O)N3CCN(c4ccc(F)cc4)CC3)c(=O)c2c1S(=O)(=O)N1CCC(C)CC1` reads inactive: -5.88%; that for `Cc1ccc(CNC(=O)C2CCN(S(=O)(=O)c3c(C)noc3/C=C/c3cccs3)CC2)cc1`, inactive: -25.5%.
The result for `CCOc1ccc(NC(=O)CN(c2ccc(CC)cc2)S(=O)(=O)c2c(C)noc2C)cc1` reads inactive: -31.1%.
Turning to `CCOc1ccc(-c2nc(Cn3c(=O)cc(-c4ccccc4)c4c(C)nn(C)c43)c(C)o2)cc1`, the activation was inactive: -7.11%.
For the compound `O=C(CCS(=O)(=O)c1cc2c(cc1Cl)NC(=O)CO2)NCc1ccccc1Cl`, the activation was inactive: -0.601%.
Consider `CSc1ncc(C(=O)NCc2cccc(F)c2)c(-c2ccccc2)n1`, for which the activation is inactive: 1.79%.
On to `O=C(NCc1cccc(Cl)c1)c1ccc(NC(=O)N2CC3CCCN3c3ccccc32)cc1` (stereo not drawn), for which the activation is inactive: -17.3%.
The result for `Oc1c(C(c2ccc(Cl)cc2Cl)N2CCN(c3ccccc3)CC2)sc2nc(-c3ccco3)nn12` (stereo not drawn) reads inactive: -5.71%.
With `CC(C)Oc1ccc(CNC(=O)c2ccc(CN3CC(=O)N4CCCCC4C3=O)cc2)cc1` (stereo not drawn) the figure was inactive: -5.9%; with `Cc1cc(C)cc(Nc2cc(C(=O)NC3CCC(C)CC3)c3ccccc3n2)c1` (stereo not drawn), inactive: -4.85%.
The result for `Cc1ccc(S(=O)(=O)Nc2cc3c(cc2C)n(C)c(=O)c(=O)n3C)c(C)c1` reads inactive: -19.5%; that for `COc1ccc(CCNC(=O)c2c(C)oc3ncnc(N4CCOCC4)c23)c(OC)c1`, inactive: -8.53%.
Take `O=C(Cn1c(=O)c(C(F)(F)F)nc2ccccc21)Nc1cccc(Br)c1`: the activation is inactive: 7.73%.
The result for `Cn1nnnc1SCCCNCc1ccc(-c2ccc(F)c(Cl)c2)o1` reads inactive: -2.88%; that for `CCc1nc(-c2cc(S(=O)(=O)N3CCN(c4ccccc4F)CC3)ccc2OC)no1`, inactive: -4.8%; that for `CN(Cc1ccc(F)cc1)S(=O)(=O)c1nnc(NC(=O)c2ccccc2Cl)s1`, inactive: 11.6%.
The result for `CCCN1C(C(=O)c2ccccc2)=C(OC(=O)c2ccc(OC)cc2)c2ccccc2S1(=O)=O` reads inactive: -15.9%.
The result for `Cc1cc(=O)n(CC(=O)NCc2ccc(OC(C)C)cc2)c2c1c(C)nn2-c1cccc(F)c1` reads inactive: -4.2%; that for `Cc1ccc(CNC(=O)C2CCCN(S(=O)(=O)c3cn(C)cn3)C2)cc1` (stereo not drawn), inactive: -11.1%; that for `O=C(NCCc1ccccc1)c1ccc(CS(=O)(=O)Cc2ccccc2Cl)o1`, inactive: 1.51%.
Turning to `CCc1ccc(NC(=O)CN2C(=O)CCSc3ccccc32)cc1`, the activation is active: 63.1%.
The result for `Cc1cc(C)cc(NS(=O)(=O)c2ccc(N3CCCCS3(=O)=O)cc2)c1` reads inactive: -2.56%; that for `CC(C)Cc1nn2c(=O)cc(COC(=O)c3ccc(NC(=O)CCc4ccccc4)cc3)nc2s1`, inactive: -16.1%; that for `O=c1c(N2CCc3ccccc3C2)csc2ccc(Cl)cc12`, inactive: -40.2%.
As to `Cc1ccc(NC(=O)C(C)Sc2nc(-c3ccccc3)c(C#N)c(=O)[nH]2)c(C)c1` (stereo not drawn), the activation is inactive: 38.9%.
With `O=C(Nc1nnc(S(=O)(=O)N2CCOCC2)s1)c1ccccc1F` the figure was inactive: 36.6%.
Regarding `COc1ccc(/C=C/C(=O)Nc2sc(C)c(C)c2C(=O)O)cc1`, the activation is inactive: -5.14%.
Turning to `CCOc1cc(CN2CCN(S(=O)(=O)c3ccc(C)cc3)CC2)ccc1OC`, the activation is inactive: -12.9%.
The result for `CC(C)c1cnc2c(c1SCC(=O)N1CCCCC1)c(=O)n(C)c(=O)n2C` reads inactive: -20.6%; that for `COc1ccc(Nc2c(-c3ccc(N4CCOCC4)cc3)nc3ncccn23)cc1OC`, inactive: -14.3%.
Consider `CCOC(=O)N1CCc2c(sc3c2c(=O)n(Cc2ccccc2)c(=O)n3CC(=O)Nc2ccc(C)cc2C)C1`, for which the activation was inactive: -2.09%.
